Assay [1] has as its target T1, V5-tagged RSF1-C1 S1375A (human) (UniProt Q96T23).
T1 sequence: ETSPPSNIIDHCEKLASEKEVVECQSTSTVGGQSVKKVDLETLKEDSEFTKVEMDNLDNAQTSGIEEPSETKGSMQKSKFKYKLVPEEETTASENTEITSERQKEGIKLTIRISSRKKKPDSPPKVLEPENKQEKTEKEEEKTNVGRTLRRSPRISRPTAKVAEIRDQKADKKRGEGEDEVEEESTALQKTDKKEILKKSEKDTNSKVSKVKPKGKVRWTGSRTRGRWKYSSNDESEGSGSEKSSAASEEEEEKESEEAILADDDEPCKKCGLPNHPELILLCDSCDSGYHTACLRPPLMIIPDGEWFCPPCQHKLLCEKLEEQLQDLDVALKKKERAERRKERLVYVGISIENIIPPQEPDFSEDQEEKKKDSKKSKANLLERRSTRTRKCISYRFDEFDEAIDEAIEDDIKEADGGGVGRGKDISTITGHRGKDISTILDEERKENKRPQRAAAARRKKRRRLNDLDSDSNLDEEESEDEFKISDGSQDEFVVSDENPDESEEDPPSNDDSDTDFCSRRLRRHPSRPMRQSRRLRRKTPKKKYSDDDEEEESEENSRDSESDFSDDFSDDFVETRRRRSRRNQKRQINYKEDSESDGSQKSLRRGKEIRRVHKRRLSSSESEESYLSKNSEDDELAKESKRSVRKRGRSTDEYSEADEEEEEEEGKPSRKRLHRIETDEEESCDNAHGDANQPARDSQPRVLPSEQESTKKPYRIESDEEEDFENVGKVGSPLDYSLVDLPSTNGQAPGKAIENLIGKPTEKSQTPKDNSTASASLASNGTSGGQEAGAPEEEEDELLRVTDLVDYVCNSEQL
Description: co-IP; RSF1 KO HeLa cells transfected with RSF1-C1-V5 constructs, paclitaxel 16 h; mitotic lysates immunoprecipitated with anti-V5 antibody, immunoblotting. (In general: Immunoblotting shows a protein as a band on a membrane.)

The target of assay [2] is T2, V5-tagged RSF1-C1 S1359D (human) (UniProt Q96T23).
T2 sequence: T1 sequence with S733D, A749S
The assay is described as above.

Numbering of substitutions follows the chain as printed. These are yes or no findings as the source states them, for the method shown. Binding seen in cells or lysates may run through a third protein. Some entries that bind do so weakly or less than the wild type. Where a sequence is shown, tags or fusion partners need not be part of it.

“endogenous PLK1 (from UniProt P53350 1-603)”: the binding result is listed as “no binding” in assay [1] and “binds” in assay [2].

These data come from article PMC4918322.
